Results: paper PMC11960969, “Mdga2 deficiency leads to an aberrant activation of BDNF/TrkB signaling that underlies autism-relevant synaptic and behavioral changes in mice” (PLOS Biology, 2025)
Where a chain is given by its changes, count along the chain named. Names may count otherwise. No constants are given. Whether binding was seen depends on the method and setting. In cells and extracts the contact can be indirect. Some binding calls cover weakened binding; strength is not graded here. For some assays here: Sequences can lack the tags named with a protein. One block for each binder: values may come before it.

Sequences of proteins named here, by UniProt entry; tags and fusion partners are left off. Residues count along the entry.
UniProt P15209, residues 32-821: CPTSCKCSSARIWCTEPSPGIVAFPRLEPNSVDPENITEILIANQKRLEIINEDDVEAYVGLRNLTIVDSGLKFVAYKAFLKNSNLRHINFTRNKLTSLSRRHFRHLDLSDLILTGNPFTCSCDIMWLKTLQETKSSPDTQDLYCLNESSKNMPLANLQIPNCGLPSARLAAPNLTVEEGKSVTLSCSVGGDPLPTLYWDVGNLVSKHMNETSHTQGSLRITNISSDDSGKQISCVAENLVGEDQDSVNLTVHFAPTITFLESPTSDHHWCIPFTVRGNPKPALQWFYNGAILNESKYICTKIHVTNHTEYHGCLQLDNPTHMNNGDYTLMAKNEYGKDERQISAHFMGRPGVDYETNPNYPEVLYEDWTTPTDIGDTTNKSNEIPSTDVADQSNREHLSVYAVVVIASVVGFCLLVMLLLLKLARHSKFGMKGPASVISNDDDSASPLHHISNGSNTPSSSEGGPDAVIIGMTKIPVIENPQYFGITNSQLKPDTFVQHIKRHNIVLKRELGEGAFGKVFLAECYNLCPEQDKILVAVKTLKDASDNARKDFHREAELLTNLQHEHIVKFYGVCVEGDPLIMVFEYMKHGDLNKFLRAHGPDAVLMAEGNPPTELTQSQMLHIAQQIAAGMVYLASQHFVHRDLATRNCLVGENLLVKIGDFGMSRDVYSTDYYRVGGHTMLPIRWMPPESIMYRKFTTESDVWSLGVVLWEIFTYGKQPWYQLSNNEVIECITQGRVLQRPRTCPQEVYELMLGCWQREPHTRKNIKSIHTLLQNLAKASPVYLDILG
UniProt Q16620, residues 32-822: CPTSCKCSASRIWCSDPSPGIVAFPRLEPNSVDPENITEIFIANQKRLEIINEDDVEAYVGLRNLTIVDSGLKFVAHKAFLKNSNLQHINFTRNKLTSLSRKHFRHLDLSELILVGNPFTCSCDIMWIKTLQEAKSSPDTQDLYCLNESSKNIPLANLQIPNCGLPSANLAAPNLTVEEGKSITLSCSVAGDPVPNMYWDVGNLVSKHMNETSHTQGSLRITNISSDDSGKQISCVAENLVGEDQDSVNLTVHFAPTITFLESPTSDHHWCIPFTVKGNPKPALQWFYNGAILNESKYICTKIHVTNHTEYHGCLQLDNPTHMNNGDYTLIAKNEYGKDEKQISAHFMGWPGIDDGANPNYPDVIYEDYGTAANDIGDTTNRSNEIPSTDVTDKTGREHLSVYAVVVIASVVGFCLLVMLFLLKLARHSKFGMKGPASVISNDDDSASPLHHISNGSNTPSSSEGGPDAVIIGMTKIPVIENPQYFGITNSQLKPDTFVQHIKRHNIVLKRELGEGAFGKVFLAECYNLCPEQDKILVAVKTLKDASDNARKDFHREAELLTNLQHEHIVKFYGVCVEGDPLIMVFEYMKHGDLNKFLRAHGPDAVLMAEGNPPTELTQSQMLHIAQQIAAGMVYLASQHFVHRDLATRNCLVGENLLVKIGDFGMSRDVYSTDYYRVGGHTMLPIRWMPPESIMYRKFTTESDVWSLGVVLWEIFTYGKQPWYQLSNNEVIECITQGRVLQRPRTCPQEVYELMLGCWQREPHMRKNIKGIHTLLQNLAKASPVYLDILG

Legend:
[1] = molecular target: TrkB (tyrosine kinase B receptor), endogenous mouse (mouse (endogenous in mouse brain)) (UniProt P15209); assay: co-IP; mouse brain lysates (WT; Het and WT littermates for BDNF), IP with an anti-TrkB antibody or control IgG, immunoblot
[2] = molecular target: Flag-tagged full-length human TrkB (TrkB-Flag) (human) (UniProt Q16620); assay: co-IP; mouse primary neurons transfected with GFP-tagged MDGA2, V930I or ΔMAM (text: co-transfected with TrkB); lysates IP with GFP or an anti-TrkB antibody, immunoblot
[3] = molecular target: full-length human TrkB tagged with the N-terminal Venus fragment (TrkB-VN) (human) (UniProt Q16620); assay: split reporter; BiFC with Venus halves in HeLa cells co-transfected for 24 h; confocal microscopy

binding [1]: binds
B1: MDGA2 (MAM domain containing glycosylphosphatidylinositol anchor 2), endogenous mouse (protein, UniProt P60755 26-924)
chain: PPTVRIVHSGLACNIEEERYSERVYTIREGETLELTCLVTGHPRPQIRWTKTAGSASDRFQDSSVFNETLRITNIQRHQGGRYYCKAENGLGSPAIKSIRVDVYYLDDPVVTVHQSIGEAKEQFYYERTVFLRCVANSNPPVRYSWRRGQEVLLQGSDKGVEIYEPFFTQGETKILKLKNLRPQDYANYSCIASVRNVCNIPDKMVSFRLSNKTASPSIKLLVDDPIVVNPGEAITLVCVTTGGEPTPSLTWVRSFGTLPEKIVLNGGTLTIPAITSDDAGTYSCIANNNVGNPAKKSTNIIVRALKKGRFWITPDPYHKDDNIQIGREVKISCQVEAVPSEELTFSWFKNGRPLRSSERMVITQTDPDVSPGTTNLDIIDLKFTDFGTYTCVASLKGGGISDISIDVNISSSTVPPNLTVPQEKSPLVTREGDTIELQCQVTGKPKPIILWSRADKEVAMPDGTMQMESYDGTLRIVNVSREMSGMYRCQTSQYNGFNVKPREALVQLIVQYPPAVEPAFLEIRQGQDRSVTMSCRVLRAYPIRVLTYEWRLGNKLLRTGQFDSQEYTEYPLKSLSNENYGVYNCSIINEAGAGRCSFLVTGKAYAPEFYYDTYNPVWQNRHRVYSYSLQWTQMNPDAVDRIVAYRLGIRQAGQQRWWEQEIKINGNIQKGELITYNLTELIKPEAYEVRLTPLTKFGEGDSTIRVIKYTGEFHCGFEDGNICLFTQDDTDNFDWTKQSTATRNTKYTPNTGPSADRSGSKEGFYMYIETSRPRLEGEKARLLSPVFSIAPKNPYGPTNSAYCFSFFYHMYGQHIGVLNVYLRLKGQTTIENPLWSSSGNKGQRWNEAHVNIYPITSFQLIFEGIRGPGIEGDIAIDDVSIAEGECAKQDLPTKNSVD

binding [2]: binds
B2: GFP-tagged human MDGA2 with the ASD-associated V930I mutation (MDGA2-V930I) (protein, UniProt Q7Z553 26-931)
chain: PPTVRIVHSGLACNIEEERYSERVYTIREGETLELTCLVTGHPRPQIRWTKTAGSASDRFQDSSVFNETLRITNIQRHQGGRYYCKAENGLGSPAIKSIRVDVYYLDDPVVTVHQSIGEAKEQFYYERTVFLRCVANSNPPVRYSWRRGQEVLLQGSDKGVEIYEPFFTQGETKILKLKNLRPQDYANYSCIASVRNVCNIPDKMVSFRLSNKTASPSIKLLVDDPIVVNPGEAITLVCVTTGGEPAPSLTWVRSFGTLPEKTVLNGGTLTIPAITSDDAGTYSCIANNNVGNPAKKSTNIIVRALKKGRFWITPDPYHKDDNIQIGREVKISCQVEAVPSEELTFSWFKNGRPLRSSERMVITQTDPDVSPGTTNLDIIDLKFTDFGTYTCVASLKGGGISDISIDVNISSSTVPPNLTVPQEKSPLVTREGDTIELQCQVTGKPKPIILWSRADKEVAMPDGSMQMESYDGTLRIVNVSREMSGMYRCQTSQYNGFNVKPREALVQLIVQYPPAVEPAFLEIRQGQDRSVTMSCRVLRAYPIRVLTYEWRLGNKLLRTGQFDSQEYTEYAVKSLSNENYGVYNCSIINEAGAGRCSFLVTGKAYAPEFYYDTYNPVWQNRHRVYSYSLQWTQMNPDAVDRIVAYRLGIRQAGQQRWWEQEIKINGNIQKGELITYNLTELIKPEAYEVRLTPLTKFGEGDSTIRVIKYSAPVNPHLREFHCGFEDGNICLFTQDDTDNFDWTKQSTATRNTKYTPNTGPNADRSGSKEGFYMYIETSRPRLEGEKARLLSPVFSIAPKNPYGPTNTAYCFSFFYHMYGQHIGVLNVYLRLKGQTTIENPLWSSSGNKGQRWNEAHVNIYPITSFQLIFEGIRGPGIEGDIAIDDVSIAEGECAKQDLATKNSID

binding [3]: binds
B3: full-length MDGA2 tagged with the C-terminal Venus fragment (MDGA2-VC) (protein, UniProt Q7Z553 26-931)
chain: B2 chain with I905V

binding [1]: no binding
B4: MDGA1, endogenous mouse (protein, UniProt Q0PMG2 19-933)
chain: QGVYAPAQAQIVHAGQACVVKEDNISERVYTIRESDTLVLQCLVTGHPRPQVRWTKTAGSASDKFQETSVFNETLRIERIARTQGGRYYCKAENGVGVPAIKSIRVDVQYLDEPVLTVHQTVSDVRGNFYQEKTVFLRCTVSSNPPARFIWKRGSDTLSHSQDNGVDIYEPLYTQGETKVLKLKNLRPQDYASYTCQVSVRNVCGIPDKAITFQLTNTTAPPALKLSVNETLVVNPGENVTVQCLLTGGDPLPQLHWSHGPGPLPLGALAQGGTLSIPSVQARDSGYYNCTATNNVGNPAKKTVNLLVRSLKNATFQITPDMIKESENIQLGQDLKLSCHVDAVPQEKVNYQWFKNGKPARTSKRLLVTRNDPELPAVTSSLELIDLHFSDYGTYLCMASFPGSPVPDLSIEVNISSETVPPTISVPKGRAVVTVREGSPAELQCEVRGKPRPPVLWSRVDKEAALLPSGLALEETPDGKLRLESVSRDMSGTYRCQTARYNGFNVRPREAQVQLTVHFPPEVEPSSQDVRQALGRPVLLRCSLLRGSPQRIASAVWRFKGQLLPPPPVLPAAAVETPDHAELRLDALTRDSSGNYECSVSNDVGSATCLFQVSAKAYSPEFYFDTPNPTRSHKLSKNYSYVLQWTQREPDAVDPVLNYRLSIRQLNQHNAMVKAIPVRRVEKGQLLEYILTDLRVPHSYEIRLTPYTTFGAGDMASRIIHYTEPINLPSLSDNTCHFEDEKICGYTQDLTDNFDWTRQNALTQNPKRSPNTGPPTDISGTPEGYYMFIETSRPRELGDRARLVSPLYNASAKFYCVSFFYHMYGKHIGSLNLLVRSRNKGTLDTHAWSLSGNKGNVWQQAHVPINPSGPFQIIFEGVRGSGYLGDIAIDDVTLKKGECPRRQMDPNKVVVMPGS

binding [3]: no binding
B5: MDGA2-ΔMAM tagged with the C-terminal Venus fragment (ΔMAM-VC) (domain or fragment, UniProt Q7Z553)
chain: PPTVRIVHSGLACNIEEERYSERVYTIREGETLELTCLVTGHPRPQIRWTKTAGSASDRFQDSSVFNETLRITNIQRHQGGRYYCKAENGLGSPAIKSIRVDVYYLDDPVVTVHQSIGEAKEQFYYERTVFLRCVANSNPPVRYSWRRGQEVLLQGSDKGVEIYEPFFTQGETKILKLKNLRPQDYANYSCIASVRNVCNIPDKMVSFRLSNKTASPSIKLLVDDPIVVNPGEAITLVCVTTGGEPAPSLTWVRSFGTLPEKTVLNGGTLTIPAITSDDAGTYSCIANNNVGNPAKKSTNIIVRALKKGRFWITPDPYHKDDNIQIGREVKISCQVEAVPSEELTFSWFKNGRPLRSSERMVITQTDPDVSPGTTNLDIIDLKFTDFGTYTCVASLKGGGISDISIDVNISSSTVPPNLTVPQEKSPLVTREGDTIELQCQVTGKPKPIILWSRADKEVAMPDGSMQMESYDGTLRIVNVSREMSGMYRCQTSQYNGFNVKPREALVQLIVQYPPAVEPAFLEIRQGQDRSVTMSCRVLRAYPIRVLTYEWRLGNKLLRTGQFDSQEYTEYAVKSLSNENYGVYNCSIINEAGAGRCSFLVTGKAYAPEFYYDTYNPVWQNRHRVYSYSLQWTQMNPDAVDRIVAYRLGIRQAGQQRWWEQEIKINGNIQKGELITYNLTELIKPEAYEVRLTPLTKFGEGDSTIRVIKYSAPVNPHLREQDLATKNSVD
